Some of these densities may be calculated back from excess volumes.
Test: xn = mol fraction of the nth substance listed
Details: 101 kPa

CO + CCCC[N+]1(C)CCCC1.O=S(=O)([N-]S(=O)(=O)C(F)(F)F)C(F)(F)F
x2 = 0
Details | mass density [kg/m3]
298.15 K | 788.6
303.15 K | 784
308.15 K | 779.4
313.15 K | 774.8
318.15 K | 770.3

CCCC[N+]1(C)CCCC1.O=S(=O)([N-]S(=O)(=O)C(F)(F)F)C(F)(F)F + CO
mass density [kg/m3]
Details | 293.15 K | 298.15 K | 303.15 K | 308.15 K | 313.15 K | 318.15 K
x1 = 0.05 | – | 977 | 972 | 967 | 962 | 957
x1 = 0.11 | 1103 | 1098 | 1093 | 1088 | 1084 | 1079
x1 = 0.16 | 1183 | 1178 | 1173 | 1168 | 1164 | 1159
x1 = 0.21 | 1234.2 | 1229.4 | 1224.5 | 1219.7 | 1214.9 | –
x1 = 0.26 | – | – | – | – | 1247.3 | 1242.6
x1 = 0.32 | 1287.3 | 1282.6 | 1277.8 | 1273.1 | – | 1263.5
x1 = 0.37 | – | 1297.2 | 1292.4 | 1287.7 | 1282.9 | 1278.1
x1 = 0.42 | 1313.6 | 1308.8 | – | 1299.3 | 1294.5 | 1289.7
x1 = 0.47 | 1324.1 | 1319.3 | 1314.5 | – | 1304.8 | 1300
x1 = 0.53 | 1334 | 1329.2 | 1324.3 | 1319.5 | – | 1309.8
x1 = 0.58 | 1343.1 | 1338.3 | 1333.5 | 1328.7 | 1323.8 | 1319
x1 = 0.63 | 1350.9 | 1346.1 | 1341.3 | 1336.6 | 1331.8 | –
x1 = 0.68 | 1356.5 | – | 1347.2 | – | – | –
x1 = 0.74 | 1359.6 | 1355.2 | 1350.6 | 1346.1 | – | 1337.1
x1 = 0.79 | 1360.5 | 1356.1 | 1351.8 | 1347.5 | 1343.2 | –
x1 = 0.84 | 1360.2 | 1355.9 | 1351.8 | 1347.7 | – | –
x1 = 0.89 | 1361.3 | 1357.1 | 1353.2 | 1349.3 | 1345.3 | 1341.1
x1 = 0.95 | 1368.2 | 1363.8 | 1359.9 | 1356.1 | 1352.2 | –
x1 = 1 | 1387 | 1382 | 1378 | 1374 | – | 1365
